PubChem BioAssay AID2546 (National Center for Advancing Translational Sciences (NCATS), 2010)
Out of some 310,000 compounds screened, about 11,000 (3.5%) were called active. The inconclusive results got no clear call from the source; some entries with a clear call stand among them for comparison. The call rests on the fitted dose curve; in most records, active means well fitted inhibition curve with a large enough effect; inconclusive means small, poorly fitted or top-dose-only effect, or effect the other way; inactive means flat fitted curve, though single readings scatter. No potency is given beside an inconclusive call; the fits are too rough.

experiment: VP16 counterscreen qHTS for inhibitors of ROR gamma transcriptional activity; details: Drosophila S2 Gal4-VP16 UAS-luciferase, luminescence, 20 h; series mostly up to 53.6 µM;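 further: Gal4-VP16 expression switched on by copper sulfate through the metallothionein promoter; nearly all actives have a fitted effect of over 50% in size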
Potency means the concentration at half of the fitted maximal effect; tags describe the fitted curve by direction and shape.

| SMILES | Potency |
| --- | --- |
| S=c1[nH]ccn1CCc1ccccc1 | inconclusive [inhibitor, single point] |
| CC(=O)/C(=N/Nc1ccc(C)cc1)Sc1nnc(CCc2ccccc2)n1-c1ccccc1 | inconclusive [inhibitor, single point] |
| CC(C)/C=N/Nc1nc(-c2ccc(Br)cc2)cs1 | inactive |
| CC(=O)c1ccc(NC(=S)N2CCN(c3cccc(Cl)c3)CC2)cc1 | inconclusive [inhibitor, partial curve] |
| CCc1cc(-c2n[nH]c(C)c2Oc2ccc(C(C)C)cc2)c(O)cc1O | inconclusive [inhibitor, single point] |
| C[C@@H]1C2CC(C/C2=N\NC(=O)c2ccncc2)C1(C)C (stereo partly drawn) | active: 12.6 µM |
| NS(=O)(=O)c1ccc(Nc2ccc3nonc3c2[N+](=O)[O-])cc1 | inconclusive [activator, single point] |
| C/C=C/c1ccc(OCCn2nnc3ccccc32)c(OC)c1 | inconclusive [inhibitor, single point] |
| O=C(O)c1cc(N/N=C/C(Cl)=C/c2ccccc2)ccc1Cl | inconclusive [inhibitor, single point] |
| CCOc1ccc(OCCSc2nc(C)cc(=O)[nH]2)cc1 | inconclusive [inhibitor, partial curve] |
| Cc1cc(C(=O)Nc2ccc(Cl)cc2)c(C)n1-c1ccccc1 | inconclusive [inhibitor, partial curve, poor fit] |
| CC(=O)c1cccc(S(=O)(=O)N2CCC(C(=O)O)(c3ccccc3)CC2)c1 | inactive |
| O=C(COc1ccc(-c2nnc(N3CCCCC3)c3ccccc23)cc1)N1CCCCC1 | inconclusive [inhibitor, partial curve] |
| COc1cc(/C=C2/SC(=S)NC2=O)ccc1OS(=O)(=O)c1ccc(C)cc1 | inconclusive [inhibitor, single point] |
| N/C(=N\OS(=O)(=O)c1ccccc1)c1ccccn1 | inactive |
| COC(=O)c1c(NC(=O)c2ccco2)sc2c1C(C(=O)OC)CC2 (stereo not drawn) | inactive |
| CC1CCc2c(sc(NC(=O)CSc3ncn[nH]3)c2C#N)C1 (stereo not drawn) | active: 0.0794 µM |
| CC(C)C(=O)NC(=S)Nc1ccc(CN2CCOCC2)cc1 | inactive |
| COc1ccc2[nH]cc(CCNc3ncncc3-c3ccc(C(=O)N(C)C)cc3)c2c1 | inactive |
| CCOc1ccc2nc(NC(=O)Nc3ccccc3)sc2c1 | inconclusive [inhibitor, single point] |
| COc1ccc(NC(=O)CSc2nc3sc(C)cc3c(=O)n2C)c(OC)c1 | inconclusive [inhibitor, single point] |
| Cc1cc(SCC(=O)NCCN2C(=O)CSC2=O)nc2ccccc12 | inconclusive [inhibitor, single point] |
| N/C(CSc1ccccn1)=N\OCc1c(Cl)cccc1Cl | inactive |
| Cc1ccc(-c2cc(C(=O)N/N=C\c3cnn(C)c3C)c3ccccc3n2)cc1C | inconclusive [inhibitor, single point] |
| COc1ccccc1/C=C/C(=O)NCCc1ccccn1 | inconclusive [inhibitor, full curve, poor fit] |

| SMILES | Potency |
| --- | --- |
| COc1ccc(OCCn2c(NC(=O)c3ccco3)nc3ccccc32)cc1 | active: 2.82 µM |
| CCC(=O)Nc1cc2nn(-c3ccc(OC)cc3)nc2cc1C | inconclusive [inhibitor, full curve, poor fit] |
| O=C(Nn1cc(C(=O)Nc2ccc(F)cc2F)c2ccccc2c1=O)c1cnccn1 | inconclusive [inhibitor, single point] |
| CCC(CC)c1nnc(NC(=O)[C@@H](NC(=O)c2cccc(C)c2)C(C)C)s1 | active: 15.8 µM |
| CCC/C(=N/NC(=O)c1csc(C)c1C)c1ccc(Cl)s1 | inconclusive [inhibitor, single point] |
| O=C(c1ccc(Br)o1)N(Cc1ccccc1)c1ccccn1 | inconclusive [activator, single point] |
| Cc1ccc2[nH]c3c(c2c1)CCc1cn[nH]c1-3 | inconclusive [activator, single point] |
| COc1ccc2cc(C(=O)C3CCCN(Cc4cccc(C)n4)C3)ccc2c1 (stereo not drawn) | active: 12.6 µM |
| Cc1ccc(NCc2n[nH]c(=S)n2-c2ccccc2)c(C)c1 | inconclusive [inhibitor, single point] |
| Cc1cc(-c2ccccc2)cc(-c2ccccc2)[n+]1C | inconclusive [inhibitor, partial curve] |
| O=C(CS(=O)(=O)Cc1ccccc1)NCCc1ccc(F)cc1 | inconclusive [inhibitor, full curve, poor fit] |
| Cc1ccc(Nc2nc(N)c([N+](=O)[O-])c(NCCO)n2)cc1 | inactive |
| Cc1ccc(N=c2c([N+](=O)[O-])nn(-c3ccccc3)n2O)c(C)c1 | inconclusive [inhibitor, single point] |
| Cc1ccccc1Oc1nnc(-c2cccs2)c2ccccc12 | inconclusive [inhibitor, single point] |
| Cc1c(C(=O)N2CCC(C)CC2)sc2ncnc(N3CCN(c4ccccc4)CC3)c12 | inactive |
| COc1ccc(-c2noc(CSc3nc(N)c(-c4ccccc4)c(=O)[nH]3)n2)cc1 | inactive |
| Cc1ccc(-c2ccccc2)n1-c1ccc(C(=O)O)cc1 | inconclusive [inhibitor, single point] |
| C=CCn1c(C2CCCCC2)n[nH]c1=S | inconclusive [inhibitor, single point] |
| Cc1ccc(C(=O)N2C(=S)C(c3ccc(F)cc3)=NC23CCN(C)CC3)cc1 | inconclusive [inhibitor, single point] |
| NC(N)=NCCC[C@@H](N)C(=O)O | inactive |
| Cc1ccccc1NCCC(=O)Nc1ccc(F)cc1 | inconclusive [activator, single point] |
| COCCCNC(=O)c1sc2ncnc(N3CCc4ccccc4C3)c2c1C | inconclusive [inhibitor, partial curve, poor fit] |
| CCCOCCc1nnc(N)s1 | inactive |
| O=c1c2cc(Cl)ccc2[nH]c(=S)n1Cc1cccs1 | active: 4.47 µM |
| CC(C)CC(=O)NC(=S)Nc1ccc(N2CCOCC2)c(Cl)c1 | inconclusive [inhibitor, single point] |

| SMILES | Potency |
| --- | --- |
| CCc1ccc(CSc2nccn2-c2ccccc2)cc1 | inactive |
| C=CCOc1cccc(C(=O)/C=C2/C(=O)Nc3ccccc32)c1 | inconclusive [inhibitor, single point] |
| FC(F)(F)c1cc(Sc2ccccc2)nc(-c2ccccn2)n1 | inconclusive [inhibitor, single point] |
| S=C(Nc1ccc(Cl)cc1)N(CCCN1CCOCC1)Cc1ccco1 | inactive |
| S=C(N/N=C/c1cccs1)NC1CC2CCC1C2 (stereo not drawn) | active: 3.16 µM |
| O=[N+]([O-])c1cc(S(=O)(=O)Nc2ccccc2)ccc1N1CCN(c2ccc(O)cc2)CC1 | inconclusive [inhibitor, single point] |
| COc1ccc(C(=O)CCN2CCN(c3ccc(OC)cc3)CC2)cc1 | inconclusive [inhibitor, single point] |
| CCOc1ccc(NC(=S)N/N=C(\C)Cc2ccc(OC)cc2)cc1 | inconclusive [inhibitor, single point] |
| C/C(CC(=O)Nc1ccc(N(C)C)cc1)=N\NC(=O)c1ccc(F)cc1 | inconclusive [inhibitor, partial curve] |
| CCOc1ccccc1CN1CCCC(CNS(=O)(=O)c2ccc(OC)cc2)C1 (stereo not drawn) | inactive |
| COc1ccc(-c2nc(-c3ccccc3)c(Nc3ccc4ccccc4c3)o2)cc1 | inactive |
| CCc1ccc(NC(=O)Nc2cnccn2)cc1 | inconclusive [activator, partial curve] |
| COc1ccc(-n2ncc3c(=O)n(CC(=O)Nc4ccc(S(=O)(=O)N5CCOCC5)cc4)cnc32)cc1 | inconclusive [inhibitor, single point] |
| O=C(CCS(=O)(=O)c1ccc(Cl)cc1)NCCN1C(=O)S/C(=C\c2ccccc2F)C1=O | inconclusive [inhibitor, single point] |
| CC(C)N(C(=O)COC(=O)[C@@H]1CC(O)CN1S(=O)(=O)c1ccc(C(C)(C)C)cc1)C(C)C (stereo partly drawn) | inactive |
| COc1ccccc1N1CCN(C(c2cccs2)C(C)NC(=O)c2ccco2)CC1 (stereo not drawn) | inactive |
| COc1ccc(/C=N/N2CCN(c3ccc(Cl)cc3)CC2)cc1 | inactive |
| Cc1cc(C(=O)OCC(=O)c2ccc(Cl)c([N+](=O)[O-])c2)c2cccc(C)c2n1 | inactive |
| CCn1c(=O)c(C(=O)NC(C)c2ccccc2)c(O)c2ccccc21 (stereo not drawn) | inconclusive [inhibitor, single point] |
| CCc1ccc(CNc2ccc3c(c2)ncn3C(C)(C)C)cc1 | inconclusive [inhibitor, single point] |
| O=C(Nc1ccccc1Cc1ccccc1)c1ccccc1NS(=O)(=O)c1ccc(Cl)s1 | active: 12.6 µM |
| Cc1ccc(NCc2n[nH]c(=S)n2Cc2ccccc2)cc1Cl | inconclusive [inhibitor, single point] |
| Cc1ccc(C)c(NC(=O)C(Sc2nnc(-c3cccs3)o2)c2ccccc2)c1 (stereo not drawn) | inconclusive [inhibitor, single point] |
